Source: US6649626B1, “N-substituted 1-(lactone) isoquinolones for treating nervous disorders” (Centre National de la Recherche Scientifique (CNRS), priority 1999, dated 2003)
Like-named read-outs stand apart in the source and are kept apart here. For at least one compound, name, drawing or mass did not settle the structure. Some entries share one result that the patent states for a list of compounds.

What was measured:
[1] = biological target: benzodiazepine-binding site of the GABA-A receptor; assay: Displacement of tritiated flunitrazepam from brain membranes; conditions: read-out: IC50 Flu / BZ receptor
[2] = system: picrotoxin-binding site of the GABA-A receptor; assay: Displacement of 35S-TBPS from brain membranes; parameters: species or system rats; conditions: for IC50: tissue not stated
[3] = system: GABA-binding site of the GABA-A receptor; assay: Displacement of tritiated muscimol from brain membranes; conditions: 100 μM; for Muscimol: stimulation: stimulation instead of displacement
[4] = biological target: T1, α1β2γ2 subtype of the GABA receptor (Rattus norvegicus, UniProt P18508+P62813+P63138); assay: Electrophysiology: modulation of GABA currents in Xenopus oocytes expressing recombinant GABA-A receptors; type: cell-based; conditions: for stimulation of the GABA currents (in words): α1β2γ2 receptor
T1 construct: expressed in transfected cells; host or cells: Xenopus laevis oocytes (cRNA injection)
T1 sequence (P62813 28-455): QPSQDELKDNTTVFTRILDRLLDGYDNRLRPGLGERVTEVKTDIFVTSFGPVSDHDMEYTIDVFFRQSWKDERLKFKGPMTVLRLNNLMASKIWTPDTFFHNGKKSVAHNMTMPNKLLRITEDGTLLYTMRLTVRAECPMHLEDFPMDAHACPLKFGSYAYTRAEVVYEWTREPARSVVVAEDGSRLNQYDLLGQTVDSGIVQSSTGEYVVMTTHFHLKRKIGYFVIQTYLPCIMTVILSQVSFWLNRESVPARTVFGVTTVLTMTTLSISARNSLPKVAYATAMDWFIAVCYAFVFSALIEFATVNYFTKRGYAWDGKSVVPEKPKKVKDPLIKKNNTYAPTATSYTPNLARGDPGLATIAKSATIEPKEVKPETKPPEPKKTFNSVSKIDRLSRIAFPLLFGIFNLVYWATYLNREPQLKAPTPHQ
T1 sequence (P63138 25-474 limits assumed): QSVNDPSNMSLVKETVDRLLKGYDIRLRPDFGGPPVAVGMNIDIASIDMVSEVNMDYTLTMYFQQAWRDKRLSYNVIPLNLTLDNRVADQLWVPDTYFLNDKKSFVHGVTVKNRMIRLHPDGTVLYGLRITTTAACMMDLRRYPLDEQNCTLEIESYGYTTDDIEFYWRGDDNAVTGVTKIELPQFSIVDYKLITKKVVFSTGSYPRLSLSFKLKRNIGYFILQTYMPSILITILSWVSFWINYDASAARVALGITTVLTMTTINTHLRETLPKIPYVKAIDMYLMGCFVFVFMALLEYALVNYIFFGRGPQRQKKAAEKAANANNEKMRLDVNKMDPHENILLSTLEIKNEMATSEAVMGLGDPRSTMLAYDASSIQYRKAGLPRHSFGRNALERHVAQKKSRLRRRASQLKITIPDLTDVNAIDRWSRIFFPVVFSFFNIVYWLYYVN
T1 sequence (P18508 39-466): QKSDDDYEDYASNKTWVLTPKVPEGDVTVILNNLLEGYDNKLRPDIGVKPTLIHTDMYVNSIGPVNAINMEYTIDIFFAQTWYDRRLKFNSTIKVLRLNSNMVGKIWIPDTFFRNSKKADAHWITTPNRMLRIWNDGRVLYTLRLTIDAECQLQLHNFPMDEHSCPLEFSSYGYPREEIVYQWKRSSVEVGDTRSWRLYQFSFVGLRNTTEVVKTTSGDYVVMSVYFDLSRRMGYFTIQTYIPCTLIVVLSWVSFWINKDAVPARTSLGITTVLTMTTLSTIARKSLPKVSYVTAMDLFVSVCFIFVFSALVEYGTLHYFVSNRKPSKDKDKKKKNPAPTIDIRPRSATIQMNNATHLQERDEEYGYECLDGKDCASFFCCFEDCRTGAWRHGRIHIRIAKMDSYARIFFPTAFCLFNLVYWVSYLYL

[5] = biological target: T2, benzodiazepine-binding site of the GABA-A receptor (Rattus norvegicus, UniProt P18508+P62813); assay: Displacement of tritiated flunitrazepam from brain membranes; conditions: compared with 54
T2 construct: IC50 Flu / BZ receptor; other: cerebellum (ce); other: cerebellum (ce; BZ1 subtype); other: 10 μM; cerebellum; other: 100 μM; other: 0.5 μM
T2 sequence (P62813 28-455): as the sequence (P62813 28-455) above
T2 sequence (P18508 39-466): as the sequence (P18508 39-466) above
T2 sequence (P63138 26-474 partner): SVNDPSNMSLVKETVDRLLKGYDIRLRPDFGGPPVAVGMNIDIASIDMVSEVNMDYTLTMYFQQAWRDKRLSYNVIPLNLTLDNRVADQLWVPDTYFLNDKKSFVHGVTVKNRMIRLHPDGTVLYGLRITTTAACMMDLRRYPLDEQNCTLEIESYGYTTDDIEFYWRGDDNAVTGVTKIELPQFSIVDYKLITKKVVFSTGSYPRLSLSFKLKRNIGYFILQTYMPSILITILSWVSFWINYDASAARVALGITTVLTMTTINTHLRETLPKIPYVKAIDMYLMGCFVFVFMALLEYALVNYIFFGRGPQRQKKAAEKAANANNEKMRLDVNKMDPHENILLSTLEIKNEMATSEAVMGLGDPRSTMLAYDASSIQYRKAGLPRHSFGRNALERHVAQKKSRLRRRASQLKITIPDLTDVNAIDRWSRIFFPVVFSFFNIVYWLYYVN

[6] = biological target: T3, receptors possessing an α5 subunit (Rattus norvegicus, UniProt P18508+P19969+P63138); assay: Gabaergic currents at receptors possessing an α5 subunit; type: cell-based
T3 construct: expressed in transfected cells; host or cells: Xenopus laevis oocytes (cRNA injection)
T3 sequence (P19969 32-464 limits assumed): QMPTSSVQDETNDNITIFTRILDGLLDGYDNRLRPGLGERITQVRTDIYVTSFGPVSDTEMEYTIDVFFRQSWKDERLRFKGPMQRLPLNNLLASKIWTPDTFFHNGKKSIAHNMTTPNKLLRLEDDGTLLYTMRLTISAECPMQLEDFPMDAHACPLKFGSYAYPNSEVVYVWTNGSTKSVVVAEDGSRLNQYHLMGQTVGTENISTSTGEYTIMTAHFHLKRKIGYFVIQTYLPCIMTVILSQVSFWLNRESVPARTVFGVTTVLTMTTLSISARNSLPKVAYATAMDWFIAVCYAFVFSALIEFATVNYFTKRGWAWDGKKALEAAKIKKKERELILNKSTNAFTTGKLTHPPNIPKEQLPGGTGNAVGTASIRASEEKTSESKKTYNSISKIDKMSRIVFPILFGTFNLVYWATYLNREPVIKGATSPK
T3 sequence (P63138 25-474 limits assumed): as the sequence (P63138 25-474 limits assumed) above
T3 sequence (P18508 39-466): as the sequence (P18508 39-466) above

[7] = system: mutated receptor incapable of responding to an application of loreclezole; assay: Stimulation of the current at a loreclezole-insensitive mutated receptor; type: cell-based; conditions: loreclezole-unresponsive mutant
[8] = biological target: T4, GABA-A receptor (Rattus norvegicus, UniProt P18508+P62813+P63138); assay: Currents produced or stimulated by pentobarbital in oocytes; type: cell-based
T4 construct: expressed in transfected cells; host or cells: Xenopus laevis oocytes (cRNA injection)
T4 sequence (P62813 28-455): as the sequence (P62813 28-455) above
T4 sequence (P63138 25-474 limits assumed): as the sequence (P63138 25-474 limits assumed) above
T4 sequence (P18508 39-466): as the sequence (P18508 39-466) above

Row | SMILES | Displacement of muscimol [3] | stimulation of the GABA currents (in words) [4] | binding affinities with the benzodiazepine receptor (in words) [5] | IC50 [2] | Muscimol: stimulation [3] | also measured
1 | COc1cc2c(cc1OC)C(C1CCC(=O)O1)N(C(=O)OCc1ccccc1)CC2 (racemic) [Compound 48, (±)-(1R,2′R)-2-N-Benzyloxycarbonyl-6,7-dimethoxy-1-(2,3,4,5-tetrahydro-5-oxo-2-furyl)-1,2,3,4-tetrahydroisoquinoline] | 100 μM = 0% | – | – | – | – | IC50 ([1]; tissue not stated): > 100 µM; Inhibition of the tritiated ligands % TBPS ([2]; 10 μM): 0%
2 | O=C1CC[C@H]([C@H]2c3ccccc3CCN2S(=O)(=O)c2ccccc2)O1 (racemic) [Compound 65, (±)-(1R,2′R)-2-N-Benzenesulfonyl-1-(2,3,4,5-tetrahydro-5-oxo-2-furyl)-1,2,3,4-tetrahydroisoquinoline] | – | much more vigorous than with the analogous carbamate derivative 54 | considerably lower | – | – | –
3 | O=C1CCC(C2c3ccccc3CCN2S(=O)(=O)c2ccc(Cl)cc2)O1 (racemic) [Compound 66, (±)-(1R,2′R)-1-(2,3,4,5-Tetrahydro-5-oxo-2-furyl)-2-N-p-chlorobenzenesulfonyl-1,2,3,4-tetrahydroisoquinoline] | – | much more vigorous than with the analogous carbamate derivative 54 | considerably lower | 80 µM | weak stimulation | –
4 | Cc1ccc(S(=O)(=O)N2CCc3ccccc3C2[C@H]2CCC(=O)O2)cc1 (mixture of isomers) [Compound 67, (±)-(1R,2′R)-1-(2,3,4,5-Tetrahydro-5-oxo-2-furyl)-2-N-p-toluenesulfonyl-1,2,3,4-tetrahydroisoquinoline] | – | much more vigorous than with the analogous carbamate derivative 54 | considerably lower | – | – | –
5 | Cc1ccc(S(=O)(=O)N2CCc3ccccc3C2C2CCC(=O)N2)cc1 (racemic) [Compound 73] | 0% | only weakly stimulates | – | – | – | effect on the gabaergic currents [6]: an inhibition (instead of a stimulation)
6 | O=C1CCC(C2c3ccccc3C=CN2C(=O)OCc2ccccc2)O1 (racemic) [Compound 75, (±)-(1R,2′R)-2-N-Benzyloxycarbonyl-1-(2,3,4,5-tetrahydro-5-oxo-2-furyl)-1,2-dihydroisoquinoline] | – | – | – | – | weak stimulation at 100 μM | IC50 ([1]; cerebellum (ce; BZ1 subtype)): 0.026 µM; IC50 ([1]; cortex (co = whole brain without cerebellum; BZ2 subtype)): 0.05 µM
7 | Cc1ccc(S(=O)(=O)N2CCc3ccccc3C2C2CCC(=O)O2)cc1 (single isomer, unassigned) [Compound 68] | 0% | much more vigorous than with the analogous carbamate derivative 54 | considerably lower | ~80 µM | – | IC50 ([2]; listed as (−) 68): ~80 µM
8 | Cc1ccc(S(=O)(=O)N2CCc3ccccc3C2C2CCC(=O)O2)cc1 (single isomer, unassigned) [Compound 69] | – | much more vigorous than with the analogous carbamate derivative 54 | considerably lower | ~40 µM | weak stimulation | stimulation of the GABA current relative to compound 54 [4]: 2.5 fold; current produced in the absence of GABA ([4]; compound alone, oocyte preparations): does not produce currents by itself; IC50 ([2]; listed as (−) 69): ~40 µM; stimulation of the current at the mutated receptor [7]: unimpaired stimulation; effect on the currents produced by GABA which are stimulated by pentobarbital [8]: not further stimulated; effect on the currents produced by pentobarbital [8]: can increase the currents produced by pentobarbital
